The supplement of paper PMC12217912
The other results are listed elsewhere or left out. Sequences were assembled here from the parent chain. Values near 0.05 are background.

B1: TEV protease; numbered along this chain (parent)
chain: MGESLFKGPRDYNPISSSICHLTNESDGHTTSLYGIGFGPFIITNKHLFRRNNGTLVVQSLHGVFKVKDTTTLQQHLVDGRDMIIIRMPKDFPPFPQKLKFREPQREERICLVTTNFQTKSMSSMVSDTSCTFPSGDGIFWKHWIQTKDGQCGSPLVSTRDGFIVGIHSASNFTNTNNYFTSVPKNFMELLTNQEAQQWVSGWRLNADSVLWGGHKVFMVKPEEPFQPVKEATQL

Variants of: B1
Test: raw area under fraction-flipped curve 0-4 h after induction (AUC4h, not background-subtracted), DNA-recorder readout of cleavage of the substrate (dimensionless); higher = more cleavage of the substrate by the protease variant
Details: temperature: 34 °C; time window: 0-4 h after rhamnose induction
Method: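 In vivo DNA recorder in E. coli TOP10(DE3) ΔrhaA at 34 °C. Each TEVp single-site mutant (parent TEVp 0) is paired with a single-site variant of the 7-mer TEVs (canonical ENLYFQ|S). The substrate sits between flexible linkers in a Bxb1-sfGFP-TEVs-SsrA fusion, so cleavage stabilises Bxb1 and speeds flipping of a recombination array, read by NGS. The value is the raw area under the fraction-flipped curve over 0-4 h after rhamnose induction (AUC4h), with ≥20 reads per time point. It is not background-subtracted; inactive controls average about 0.047.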
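Further: Bxb1 expression induced with 0.2% (w/v) L-rhamnose at OD600 near 0.5, cultures sampled hourly, flipped fraction per protease–substrate barcode pair counted by paired-end Illumina sequencing.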

Variant | area with substrate CNLYFQS | area with substrate HNLYFQS | area with substrate INLYFQS | area with substrate LNLYFQS | area with substrate MNLYFQS | area with substrate PNLYFQS | area with substrate SNLYFQS | area with substrate TNLYFQS | area with substrate VNLYFQS | area with substrate WNLYFQS | area with substrate YNLYFQS | area with substrate QNLYFQS | area with substrate FNLYFQS | area with substrate NNLYFQS | area with substrate GNLYFQS | area with substrate KNLYFQS | area with substrate RNLYFQS
MGESLFKGPRDYNPISSSICHLTNESDGHTTSLYGIGFGPFIITNKHLFRRNNGTLVVQSLHGVFKVKDTTTLQQHLVDGRDMIIIRMPKDFPPFPQKLKFREPQREERICLVTTNFQTKSMSSMVSDTSCTFPSGDGIFWKHWIQTKDGQCGSPLVSTRDGFIVGIHSASNFTNTNNYFTSVPKNFMELLTNQEAQYWVSGWRLNADSVLWGGHKVFMVKPEEPFQPVKEATQL [Q198Y] | 0.0693 | 0.0629 | 0.0697 | 0.0645 | 0.0576 | 0.061 | 0.0643 | 0.0653 | 0.0677 | 0.0541 | 0.0569 |  |  |  |  |  | 
MGESLFKGPRDYNPISSSICHLTNESDGHTTSLYGIGFGPFIITNKHLFRRNNGTLVVQSLHGVFKVKDTTTLQQHLVDGRDMIIIRMPKDFPPFPQKLKFREPQREERICLVTTNFQTKSMSSMVSDTSCTFPSGDGIFWKHWIQTKDGQCGSPLVSTRDGFIVGIHSASNFTNTNNYFTSVPKNFMELLTNQEAQQWVPGWRLNADSVLWGGHKVFMVKPEEPFQPVKEATQL [S201P] | 0.063 | 0.0486 | 0.0642 | 0.0621 | 0.0638 | 0.0654 |  | 0.0669 |  | 0.0514 |  | 0.0503 |  |  |  |  | 
MGESLFKGPRDYNPISSSICHLTNESDGHTTSLYGIGFGPFIITNKHLFRRNNGTLVVQSLHGVFKVKDTTTLQQHLVDGRDMIIIRMPKDFPPFPQKLKFREPQREERICLVTTNFQTKSMSSMVSDTSCTFPSGDGIFWKHWIQTKDGQCGSPLVSTRDGFIVGIHSASNFTNTNNYFTSVPKNFMELLTNQEAQQWVSNWRLNADSVLWGGHKVFMVKPEEPFQPVKEATQL [G202N] | 0.0531 | 0.0546 | 0.0689 |  | 0.038 | 0.0614 | 0.0603 | 0.0528 |  | 0.0585 | 0.0803 |  | 0.061 | 0.0761 |  |  | 
MGESLFKGPRDYNPISSSICHLTNESDGHTTSLYGIGFGPFIITNKHLFRRNNGTLVVQSLHGVFKVKDTTTLQQHLVDGRDMIIIRMPKDFPPFPQKLKFREPQREERICLVTTNFQTKSMSSMVSDTSCTFPSGDGIFWKHWIQTKDGQCGSPLVSTRDGFIVGIHSASNFTNTNNYFTSVPKNFMELLTNQEAQQWVSSWRLNADSVLWGGHKVFMVKPEEPFQPVKEATQL [G202S] | 0.0444 | 0.0599 | 0.0475 | 0.049 |  | 0.0652 | 0.0733 |  | 0.0677 |  | 0.0761 | 0.0563 | 0.052 |  | 0.038 | 0.0499 | 
MGESLFKGPRDYNPISSSICHLTNESDGHTTSLYGIGFGPFIITNKHLFRRNNGTLVVQSLHGVFKVKDTTTLQQHLVDGRDMIIIRMPKDFPPFPQKLKFREPQREERICLVTTNFQTKSMSSMVSDTSCTFPSGDGIFWKHWIQTKDGQCGSPLVSTRDGFIVGIHSASNFTNTNNYFTSVPKNFMELLTNQEAQQWVSVWRLNADSVLWGGHKVFMVKPEEPFQPVKEATQL [G202V] | 0.0486 | 0.0459 |  | 0.0672 |  | 0.0568 | 0.0724 |  |  | 0.0618 |  |  |  | 0.0501 |  | 0.0429 | 
MGESLFKGPRDYNPISSSICHLTNESDGHTTSLYGIGFGPFIITNKHLFRRNNGTLVVQSLHGVFKVKDTTTLQQHLVDGRDMIIIRMPKDFPPFPQKLKFREPQREERICLVTTNFQTKSMSSMVSDTSCTFPSGDGIFWKHWIQTKDGQCGSPLVSTRDGFIVGIHSASNFTNTNNYFTSVPKNFMELLTNQEAQQWVSGRRLNADSVLWGGHKVFMVKPEEPFQPVKEATQL [W203R] | 0.0523 | 0.0686 | 0.0533 | 0.0503 | 0.0602 | 0.065 | 0.0545 | 0.0601 |  | 0.0527 |  |  | 0.0554 | 0.0499 |  | 0.0631 | 
MGESLFKGPRDYNPISSSICHLTNESDGHTTSLYGIGFGPFIITNKHLFRRNNGTLVVQSLHGVFKVKDTTTLQQHLVDGRDMIIIRMPKDFPPFPQKLKFREPQREERICLVTTNFQTKSMSSMVSDTSCTFPSGDGIFWKHWIQTKDGQCGSPLVSTRDGFIVGIHSASNFTNTNNYFTSVPKNFMELLTNQEAQQWVSGWELNADSVLWGGHKVFMVKPEEPFQPVKEATQL [R204E] | 0.0666 | 0.0673 |  | 0.0625 | 0.0757 |  |  | 0.0908 | 0.0699 | 0.0554 |  | 0.0825 |  |  | 0.0747 |  | 
MGESLFKGPRDYNPISSSICHLTNESDGHTTSLYGIGFGPFIITNKHLFRRNNGTLVVQSLHGVFKVKDTTTLQQHLVDGRDMIIIRMPKDFPPFPQKLKFREPQREERICLVTTNFQTKSMSSMVSDTSCTFPSGDGIFWKHWIQTKDGQCGSPLVSTRDGFIVGIHSASNFTNTNNYFTSVPKNFMELLTNQEAQQWVSGWNLNADSVLWGGHKVFMVKPEEPFQPVKEATQL [R204N] | 0.0655 | 0.071 |  | 0.0557 | 0.0736 | 0.0693 | 0.0521 | 0.0635 | 0.0796 | 0.0584 | 0.0614 |  | 0.0809 | 0.0485 | 0.075 | 0.064 | 0.0545
MGESLFKGPRDYNPISSSICHLTNESDGHTTSLYGIGFGPFIITNKHLFRRNNGTLVVQSLHGVFKVKDTTTLQQHLVDGRDMIIIRMPKDFPPFPQKLKFREPQREERICLVTTNFQTKSMSSMVSDTSCTFPSGDGIFWKHWIQTKDGQCGSPLVSTRDGFIVGIHSASNFTNTNNYFTSVPKNFMELLTNQEAQQWVSGWRFNADSVLWGGHKVFMVKPEEPFQPVKEATQL [L205F] | 0.0818 | 0.0616 |  |  | 0.0701 |  |  | 0.0637 |  |  | 0.0499 |  | 0.057 |  |  |  | 
MGESLFKGPRDYNPISSSICHLTNESDGHTTSLYGIGFGPFIITNKHLFRRNNGTLVVQSLHGVFKVKDTTTLQQHLVDGRDMIIIRMPKDFPPFPQKLKFREPQREERICLVTTNFQTKSMSSMVSDTSCTFPSGDGIFWKHWIQTKDGQCGSPLVSTRDGFIVGIHSASNFTNTNNYFTSVPKNFMELLTNQEAQQWVSGWRNNADSVLWGGHKVFMVKPEEPFQPVKEATQL [L205N] | 0.0563 |  |  | 0.0668 | 0.066 |  |  |  |  | 0.0626 | 0.0729 |  |  |  |  |  | 
MGESLFKGPRDYNPISSSICHLTNESDGHTTSLYGIGFGPFIITNKHLFRRNNGTLVVQSLHGVFKVKDTTTLQQHLVDGRDMIIIRMPKDFPPFPQKLKFREPQREERICLVTTNFQTKSMSSMVSDTSCTFPSGDGIFWKHWIQTKDGQCGSPLVSTRDGFIVGIHSASNFTNTNNYFTSVPKNFMELLTNQEAQQWVSGWRLNADCVLWGGHKVFMVKPEEPFQPVKEATQL [S209C] | 0.0669 | 0.0642 |  |  |  | 0.139 |  | 0.0546 |  | 0.0611 | 0.0906 |  |  |  |  |  | 0.0647
